The other results are listed elsewhere or left out. At the low end of the ranking the order means little.
target: T1, GST-Rok (full length) (UniProt O34857); assay: protein binding microarray; conditions: Rok is a gene silencer of Bacillus subtilis; high values mean tight binding; most listed sequences are background and not binding sites; double strand, one strand shown;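 also: rank score from −0.5 (least bound) to 0.5 (best bound)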
T1 sequence: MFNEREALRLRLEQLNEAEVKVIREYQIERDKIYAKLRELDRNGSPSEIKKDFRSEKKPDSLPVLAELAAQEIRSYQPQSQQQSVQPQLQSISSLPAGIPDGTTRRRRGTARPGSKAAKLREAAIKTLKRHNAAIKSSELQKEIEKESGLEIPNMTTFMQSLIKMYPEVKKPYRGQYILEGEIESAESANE

| Sequence | binding signal [E-score] |
| --- | --- |
| CGTTCGCA | -0.183 |
| GGTAATTA | 0.375 |
| ACGAAAGC | -0.119 |
| TCCATACA | 0.211 |
| GCTGTGCC | -0.308 |
| AGTGTGGA | 0.108 |
| CTCCAGCC | -0.243 |
| CGTAACGA | 0.166 |
| CCCCCTAC | -0.403 |
| AGCATCAC | -0.00104 |
| GAACCACC | -0.256 |
| ACCCGCAG | -0.2 |
| AATGGAAT | 0.0413 |
| TCTCGGAA | -0.0124 |
| GACCCGGC | -0.336 |
| GTAAGCTA | 0.181 |
| CTCATATA | 0.13 |
| CCCCGGAG | -0.437 |
| CTTGATGA | -0.13 |
| AGAGTATC | 0.0505 |
| ATCCTAGG | -0.0661 |
| ATCTCGTG | -0.143 |
| ATCCAGCC | -0.136 |
| AACCCCCT | -0.455 |
| CGACTGTC | -0.255 |

| Sequence | binding signal [E-score] |
| --- | --- |
| AAGCCGAA | 0.00167 |
| GATCAGGC | -0.00823 |
| AATGCGGC | 0.00238 |
| AGCGGAAA | 0.0596 |
| AGTTAGGG | -0.0305 |
| ACGTTATA | 0.202 |
| ATAACAGA | 0.104 |
| ACTCAAGA | -0.0412 |
| CGGTGGGA | -0.18 |
| CTTAGCAC | -0.0712 |
| CCAGGCAA | -0.216 |
| AAGTGATC | -0.0867 |
| CTATTGGC | -0.136 |
| ATTACGCA | 0.236 |
| GCTTGGCA | -0.0867 |
| AGCCCTAA | -0.164 |
| ACCCCTAA | -0.264 |
| ACACTACG | -0.0357 |
| ACTAGAGT | 0.224 |
| ATTGGCAA | -0.188 |
| GCGATGCC | -0.079 |
| AGAATAGA | -0.0682 |
| CCTTCACA | 0.0629 |
| GAAGGTAC | -0.0712 |
| GGAACTAC | 0.294 |

| Sequence | binding signal [E-score] |
| --- | --- |
| CATGCCAC | -0.115 |
| AGGACCTA | 0.144 |
| CCCCCCGG | -0.385 |
| GTCATCAC | -0.106 |
| AATCGGAT | -0.024 |
| AATCGCAG | 0.0474 |
| CACCGCTC | -0.238 |
| CGAGATAG | 0.0866 |
| CCCTAAGG | -0.334 |
| CGTCTTTA | 0.155 |
| CCTATCTA | 0.34 |
| CACTGTCA | -0.0558 |
| AACTTCGG | -0.044 |
| CCTTATAC | 0.0515 |
| AGTTCGCG | 0.0786 |
| GATAAAGA | 0.00716 |
| AAGGCGAG | -0.243 |
| AGTTAACC | 0.0465 |
| AATGCCGT | -0.077 |
| CGGTCCAA | -0.0697 |
| AATCGCTC | -0.175 |
| ACGAGGCA | -0.0779 |
| ATCTAGTC | 0.297 |
| ATGTCCGA | -0.0166 |
| AAAAATAT | 0.319 |

| Sequence | binding signal [E-score] |
| --- | --- |
| AACGAGTA | 0.128 |
| AGTTTGCC | 0.151 |
| AGGGCGCG | -0.256 |
| ACAGTCAA | -0.00886 |
| ATAGCCAT | -0.0303 |
| ACGTGTAT | 0.24 |
| CATTCCAC | -0.122 |
| AAATTCCT | -0.0504 |
| GGGATCCC | -0.41 |
| CAGGATTC | 0.121 |
| CACAACCC | -0.136 |
| CTCTTAGC | 0.0497 |
| GATCCACC | -0.074 |
| AATGCTGA | 0.0167 |
| CGTATCAC | 0.181 |
| ACATAAAC | 0.257 |
| AGAGGGTG | -0.305 |
| ACCGGCTC | -0.322 |
| CATTTGTC | -0.0407 |
| AAACGGAA | 0.00814 |
| CTCAGCAA | -0.041 |
| CTTAGGCA | -0.0383 |
| CATATTAA | 0.268 |
| AGTACACG | 0.0183 |
| CACAGATC | -0.168 |

| Sequence | binding signal [E-score] |
| --- | --- |
| AGTATGCG | 0.241 |
| GGACCCCC | -0.434 |
| GGGACTGA | -0.162 |
| AAACGACT | 0.082 |
| AGATCCTA | 0.165 |
| TATTTGGA | -0.0855 |
| ATGCATGG | 0.0449 |
| GACCCCCA | -0.361 |
| GCATAGGA | 0.125 |
| ACGGGGAG | -0.286 |
| GAGCCCGA | -0.287 |
| CAGTGTCA | -0.0698 |
| CGGAGATC | -0.127 |
| GGAGCGTA | -0.198 |
| TCGGTTAA | 0.186 |
| AAATGTCA | 0.0409 |
| CAGAGAGA | -0.196 |
| CTATACCA | 0.258 |
| TAGCAGGA | -0.0921 |
| GACGTTAA | -0.0985 |
| GATGACCC | -0.239 |
| CTTTTTGA | -0.251 |
| GTTTGTTA | 0.102 |
| CTGGTAAA | 0.251 |
| GGGTTCTA | -0.15 |

| Sequence | binding signal [E-score] |
| --- | --- |
| CGACTTGC | -0.131 |
| AACTAGGG | -0.00258 |
| CCCGTTCG | -0.227 |
| ACTGCGCT | -0.136 |
| CTGACTGC | -0.191 |
| CACGACGC | -0.178 |
| AGCCGGCC | -0.256 |
| GTAAGGAC | -0.0554 |
| AACAGAGA | -0.136 |
| GCAAGGCA | -0.205 |
| AGACCGAT | -0.0525 |
| AACCCGAA | -0.173 |
| CATCGTTC | -0.0505 |
| ACTAGCCG | 0.114 |
| ACGGTTAG | -0.0112 |
| AGCACCGA | -0.0625 |
| CAAGCTAA | -0.00235 |
| AGAACCTG | -0.0781 |
| CGGCGTGA | -0.25 |
| GGTTAGAA | 0.0354 |
| AAGGTGGT | -0.141 |
| CAGCGAAC | -0.101 |
| AAACGGGA | -0.162 |
| ACGCAAGA | 0.0403 |
| GTCGGAGA | -0.31 |

| Sequence | binding signal [E-score] |
| --- | --- |
| CTAATTCC | 0.131 |
| CCTGGTGC | -0.218 |
| AGGCACCG | -0.419 |
| CGGAGAAG | -0.274 |
| CCAAGCGA | -0.224 |
| ACTATGAG | 0.0614 |
| CTAGTCCA | 0.161 |
| TAGTCACA | 0.157 |
| AATTGGCT | -0.0243 |
| CACCGCCA | -0.265 |
| GCGTTCAA | -0.0683 |
| CTGCGCCC | -0.143 |
| CGAGGACA | -0.202 |
| AACTGATC | 0.0349 |
| ACTCTTAG | 0.0979 |
| CGCCTCAG | -0.351 |
| GGGAATCA | -0.172 |
| CAGTGGGG | -0.332 |
| CCTTTGCA | -0.12 |
| CATCCTAG | 0.00966 |
| ATAGTGAC | 0.0366 |
| TAATCGTA | 0.165 |
| CCATACCA | 0.0774 |
| AACACATC | -0.108 |
| CTATTCAC | -0.0178 |

| Sequence | binding signal [E-score] |
| --- | --- |
| GTGGGGTA | -0.311 |
| CTTGGCGC | -0.281 |
| ATATCGAT | 0.316 |
| GAATTCTC | -0.0203 |
| CTTCGTGC | 0.0588 |
| AGTTGGCG | -0.0309 |
| CAAGTCGA | -0.176 |
| CGTCGAAA | -0.0316 |
| AGCGGAGC | -0.0591 |
| CGGCGACA | -0.319 |
| AGGCACTA | -0.106 |
| CAGAATCG | -0.0487 |
| GCGCCCGA | -0.449 |
| ACAAGCAC | -0.138 |
| GTTTAGCA | -0.0552 |
| AGCTTGAG | -0.248 |
| CCAGATCG | -0.18 |
| CTGGTGTA | -0.0749 |
| CGCCGGCA | -0.323 |
| AAAAAACT | 0.107 |
| TATTTCCA | 0.141 |
| GATACCTA | 0.34 |
| GGGCTAAA | -0.0834 |
| AAATCTGA | 0.0348 |
| AACGCCGA | -0.224 |

| Sequence | binding signal [E-score] |
| --- | --- |
| AGAGGGCA | -0.24 |
| GGTCTGGA | -0.0664 |
| GCTCATCA | 0.00342 |
| TCGCTAGA | 0.0746 |
| AACGCTGG | -0.158 |
| GAGCTAGC | -0.0118 |
| AGGGAGCA | -0.18 |
| CGAGCTTC | -0.206 |
| GAACCCGA | -0.162 |
| ATAGACAG | 0.00316 |
| GACATCTC | -0.194 |
| CAGGTTAC | 0.0518 |
| GTCCTACA | 0.0992 |
| AAGGTACA | 0.0623 |
| GTCCGATA | -0.0216 |
| GCGCTAGA | 0.131 |
| ATCGTGGG | -0.0882 |
| ACAGTGAA | 0.109 |
| AAACACAG | 0.0603 |

Source: article PMC6212790
